# Reference: PubChem BioAssay AID485364 (National Center for Advancing Translational Sciences (NCATS), 2010)
# In all, about 360,000 compounds went through this assay and about 11,000 (3.1%) were called active. Inconclusive means that the source gave no clear call. Such entries were picked first, then a sample of the others. Calls follow the shape of the dose curve; as a rule, active = well fitted inhibition curve with a large enough effect; inconclusive = small, poorly fitted or top-dose-only effect; inactive = no such curve, though single readings can be large or run the other way. Potencies of inconclusive entries are left out as doubtful fits.
# Biological target: Schistosoma mansoni thioredoxin glutathione reductase (TGR) (UniProt Q962Y6)
# Assay: qHTS Assay for the Inhibitors of Schistosoma Mansoni Peroxiredoxins; also: nearly all actives have a fitted effect of over 60% in size
# Conditions: purified TGR, DTNB reduction, TNB absorbance 405 nm; activity change, negative = inhibition: at 114 µM (top of the series) unless noted
# Outline: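 Kinetic colorimetric format: TGR-catalysed, NADPH-driven DTNB reduction monitored via TNB absorbance. Enzyme dispensed at 20 nM; compound exposure 15 min at room temperature before reaction start.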
# % is scaled to controls: 0 for no effect and ±100 for the full control effect; potency is read from the fitted curve at half-maximal effect; tags tell the direction and shape of the fitted curve.
Compound,Potency,"activity change, negative = inhibition"
COc1cc(C(C)=O)ccc1OCc1cc(C(=O)N2CCSCC2)no1,"inconclusive [inhibitor, partial curve]",–
COc1ccc(C(NC(=O)/C=C\c2ccco2)c2ccc(OC)c(OC)c2)cc1 (centres undefined),active: 12.6 µM,–
COc1ccc2c(CN(C)c3ccccc3)cc(=O)oc2c1,"inconclusive [inhibitor, full curve]",–
CN1CCCN(Cc2ccccc2Br)CC1,"inconclusive [inhibitor, full curve, poor fit]",–
CC1(C)CC(=O)C2=C(C1)NC1=C(C(=O)c3ccccc31)C2c1ccccc1 (centres undefined),"inconclusive [inhibitor, partial curve]",–
CCCCc1nc(SCC(=O)N2CCOCC2)c2c(=O)n(C)c(=O)n(C)c2n1,–,inactive: -23%
Cc1cc(C)cc(-n2c3nc4ccccc4nc3c3c(=O)n(Cc4ccco4)cnc32)c1,active: 15.8 µM,–
O=C(C1COc2ccccc2O1)N1CCN(c2nc3c(F)cccc3s2)CC1 (centres undefined),–,inactive: -5.6%
Cc1ccccc1OCCOC(=O)c1cc(S(=O)(=O)N2CCCCC2)ccc1N1CCOCC1,–,inactive: -14.2%
Cc1ccc(Nc2nc3ccc(C)cc3nc2-n2nc(C)cc2C)c(C)c1,–,inactive: 9.7%
CN(Cc1cnccn1)Cc1nc(Cc2ccccc2Cl)no1,–,inactive: 3.15%
COc1ccc(NC(=O)CC2C(=O)N(c3cccc(OC)c3)C(=O)N2Cc2ccco2)cc1 (centres undefined),active: 44.7 µM,–
O=C(NC(Cc1ccccc1)C(=O)NCc1ccccn1)c1ccco1 (centres undefined),"inconclusive [inhibitor, partial curve]",–
Cc1sc(C(C2C(=O)CC(C)(C)CC2=O)C2C(=O)CC(C)(C)CC2=O)cc1[N+](=O)[O-],"inconclusive [inhibitor, full curve, poor fit]",–
Clc1cncc(Cl)c1N/N=C/c1ccncc1,–,inactive: -5.63%
Cc1oc2ccc(O)c(CN3CCN(Cc4ccccc4)CC3)c2c1C(=O)Nc1ccccc1,–,inactive: -13.5%
CCn1c(SCC(=O)N2CCN(c3ccccc3)CC2)nnc1-c1ccncc1,"inconclusive [inhibitor, full curve, poor fit]",–
Cc1cc(C)c2[nH]c(=O)c(CN(Cc3ccco3)C(=O)C3CCCO3)cc2c1 (centres undefined),active: 25.1 µM,–
CCc1cc(C(=O)NNC(=O)CCl)sc1C,"inconclusive [inhibitor, partial curve]",–
O=C(NC(=S)Nc1ccc2c(c1)OCCO2)c1ccccc1F,"inconclusive [inhibitor, partial curve]",–
CC(=O)Nc1ccc(S(=O)(=O)NCc2csc(-c3cccnc3)n2)cc1,"inconclusive [inhibitor, partial curve]",–
CC1(C)CN(O)CCN1O,"inconclusive [inhibitor, partial curve]",–
O=C(CSc1cccc[n+]1[O-])NC(=O)c1ccc(OC(F)F)cc1,"inconclusive [inhibitor, single point]",–
COCCN(CC1CCCN(C2Cc3ccccc3C2)C1)C(=O)CCC(F)(F)F (centres undefined),"inconclusive [inhibitor, full curve, poor fit]",–
O=S(=O)(c1cc(F)ccc1F)N1CCC2(CC1)OCCO2,–,inactive: 0.621%

Compound,Potency,"activity change, negative = inhibition"
Oc1cc2c(cc1O)[C@H]1c3ccc(O)c(O)c3OC[C@@]1(O)C2,active: 2.24 µM,–
O=C(c1ccc(CS(=O)c2ccccc2Cl)o1)N1CCN(c2ccccc2)CC1 (centres undefined),–,inactive: -24.7%
Cc1ccc(S(=O)(=O)Oc2cccc(/C=N/n3cnnc3)c2)cc1,–,inactive: -8.65%
COc1ccccc1N1CC=C(c2cccc([N+](=O)[O-])c2)NC1=O,"inconclusive [inhibitor, partial curve]",–
COC(=O)c1cccc(C(=O)Oc2cccc(Br)c2)n1,"inconclusive [inhibitor, full curve]",–
CCOc1ccc(NC(=S)Nc2ccc3nsnc3c2)cc1,"inconclusive [inhibitor, partial curve]",–
CCCCCCCCCCCCCCCC(=O)OC/C=C(C)/C=C/C=C(C)/C=C/C1=C(C)CCCC1(C)C,"inconclusive [inhibitor, partial curve]",–
Cc1ncc(C[n+]2csc(CCO)c2C)c(N)n1,"inconclusive [inhibitor, partial curve]",–
COc1ccc(NC(=O)C2CCCN2C(=O)OC(C)(C)C)cc1 (centres undefined),"inconclusive [inhibitor, single point]",–
COc1ccc2c(c1OC)C(=O)OC2c1c(O)n(Cc2ccc(F)cc2)c(=O)[nH]c1=O (centres undefined),"inconclusive [inhibitor, full curve, poor fit]",–
N#Cc1ccccc1OCC(=O)Nc1c(C(=O)C2CC2)oc2ccccc12,"inconclusive [inhibitor, partial curve]",–
CCN1CCC(Nc2ccnc3cc(Cl)ccc23)CC1,–,inactive: 6.16%
O=C(CSc1nc2c(c(=O)n1-c1ccc(Cl)cc1)SCC2)NCc1ccco1,"inconclusive [inhibitor, partial curve]",–
COc1ccc(N2CCCC2)c(NC(=O)c2ccc(Br)o2)c1,active: 44.7 µM,–
Cc1cc2c(N)cccc2nn1,active: 25.1 µM,–
Cc1nn(-c2ccccc2)c(C)c1[N+](=O)[O-],"inconclusive [inhibitor, single point]",–
COc1ccc(S(=O)(=O)CC(=O)c2cc3cccc(C)c3oc2=O)cc1,"inconclusive [inhibitor, partial curve]",–
CN(C)S(=O)(=O)c1cc(NC(=O)COC(=O)Cc2ccc(Br)cc2)ccc1Cl,–,inactive: -8.79%
Cc1ccc2c(c1)N(C(=O)CCC(=O)N1CCC(C(N)=O)CC1)CCO2,–,inactive: 11.8%
CCn1c(C)cc(=S)c2ccccc21,active: 3.98 µM,–
C=CCc1ccccc1OCC(CN1CCCCC1)OC(C)=O (centres undefined),"inconclusive [inhibitor, partial curve, poor fit]",–
Cc1sc(N/N=C/c2cccnc2)nc1-c1ccccc1,"inconclusive [inhibitor, partial curve]",–
O=C(Nc1ccc2c(c1)OCO2)C1CC(c2ccccc2O)=NO1 (centres undefined),–,inactive: 9.64%
COc1cc(/C=N/NS(=O)(=O)c2ccc(C)c([N+](=O)[O-])c2)cc([N+](=O)[O-])c1O,"inconclusive [inhibitor, partial curve]",–
O=C(/C=C/c1ccco1)OCC(=O)c1ccc(OC(F)F)cc1,active: 22.4 µM,–

Compound,Potency,"activity change, negative = inhibition"
Oc1cccc(NC(=S)Nc2ccc(SC(F)F)cc2)c1,"inconclusive [inhibitor, partial curve, poor fit]",–
COc1ccc(C2CN=NC2C(=O)c2ccccc2)cc1 (centres undefined),"inconclusive [inhibitor, partial curve]",–
CCC(=O)NC(/C=C/c1ccccc1)c1cc([N+](=O)[O-])c2cccnc2c1O (centres undefined),–,inactive: -18.8%
Cc1ccc(C(=O)N/C(=C\c2ccco2)C(=O)N2CCCCC2)cc1,"inconclusive [inhibitor, partial curve]",–
COc1cc(/C=C/C(=O)OCC(=O)N2CCC(C)CC2)ccc1OCC#N,–,inactive: -0.801%
Cc1cc(C)n(-c2ccc(F)cc2CN2CCN(Cc3ccccc3)C(CCO)C2)n1 (centres undefined),"inconclusive [inhibitor, partial curve]",–
O=[N+]([O-])c1ccccc1S(=O)(=O)NCCSCc1ccco1,active: 25.1 µM,–
COc1cc(N2CCOCC2)ccc1/C=C1\C(=O)NC(=O)N(Cc2ccc3c(c2)OCO3)C1=O,"inconclusive [inhibitor, full curve]",–
CCOC(=O)C1CCCN(C2CC(=O)N(c3cccc(C)c3)C2=O)C1 (centres undefined),active: 25.1 µM,–
CCNc1nn2ccccc2c1/C=C(\C#N)C(=O)OCC,–,inactive: 13%
Cc1cc(C=C2C(=O)c3ccccc3C2=O)c(C)n1-c1ccccc1,"inconclusive [inhibitor, partial curve]",–
O=C(COC(=O)C1CCC1)NC(=O)c1ccccc1,–,inactive: -3.69%
O=C(CSc1n[nH]c(-c2ccccc2)n1)NC(=O)NCc1ccco1,"inconclusive [inhibitor, partial curve]",–
COC(=O)C1=NNC(C(=O)c2ccco2)C1c1ccccc1 (centres undefined),"inconclusive [inhibitor, partial curve]",–
O=C(Cn1ccc2cc(S(=O)(=O)N3CCCCCC3)ccc21)NCCc1ccccc1Cl,–,inactive: 1.32%
CCc1ccc(N2C(=O)CC(N3CCC(C(=O)OC)CC3)C2=O)cc1 (centres undefined),active: 56.2 µM,–
Cc1ccc(C)c(-n2c(-c3ccc4c(c3)OCO4)n[nH]c2=S)c1,–,inactive: 23.8%
Cc1ccc(-c2noc(CN(C(=O)c3ccc(C(C)(C)C)cc3)C(C)C)n2)cc1,–,inactive: 1.81%
Cc1cc(NS(=O)(=O)c2ccc(NC(=S)NC(=O)c3ccc(Br)cc3)cc2)no1,active: 50.1 µM,–
CCOC(=O)c1c(-c2ccc(C)o2)csc1NC(=S)NC(=O)c1ccccc1Br,"inconclusive [inhibitor, partial curve]",–
COc1ccc(N2CCN(C(=O)c3ccc(CS(=O)c4cccc(C)c4)o3)CC2)cc1 (centres undefined),"inconclusive [inhibitor, full curve, poor fit]",–
CC1CN(CCCCOc2cccc(Oc3ccccc3)c2)CC(C)O1 (centres undefined),"inconclusive [inhibitor, single point]",–
CCC(Sc1ncccc1C(=O)OCCN1CCCC1=O)C(=O)NCc1ccco1 (centres undefined),active: 44.7 µM,–
BrC(=C\c1ccccc1)/C=N/Nc1nc(N2CCOCC2)nc(N2CCOCC2)n1,"inconclusive [inhibitor, partial curve]",–
